This note sets out measurements from a collection of fitness landscapes (doi:10.1016/j.celrep.2020.107928).

First the molecules themselves.
B1: Caulobacter ParB omega fusion; a variant is named by its letters at X, in order, B8GW30 (parent)
chain: MESVVVGEPGMSEGRRGLGRGLSALLGEVDAAPAQAPGEQLGGSREAPIEILQRNPDQPRRTFREEDLEDLSNSIREKGVLQPILVRPSPDTAGEYQIVAGERAWRAAQRAGLKTVPIMVRELDDLAVLEIGIIENVQRADLNVLEEALSYKVLMEKFERTQENIAQTIGKSXSHVANXMRLLXLPDEVQSYLVSGELTAXHARAIAAAADPVALAKQIIEGGLSVRETEALARKAPNLSAGKSKGGRPPRVKDTDTQALESDLSSVLGLDVSIDHRGSTGTLTITYATLEQLDDLCNRLTRGI

The full ranking holds about 81,000 sequences; the median of “one-hybrid fitness for binding NBS DNA” is about -0.1, and the highest 2% start at about 0.36. This is one part of the list.

The variants in this assay derive from B1. The assay is described as follows: one-hybrid fitness for binding NBS DNA (the Noc-binding site; scaled: cognate 1, non-cognate 0); higher = stronger binding. Particulars: with NBS DNA site. An outline of the steps: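 The reporter was HIS3, with the binding site 19 bp from the promoter, in E. coli USO used for bacterial one-hybrid selection of Caulobacter ParB libraries with four specificity codons randomised. Growth was on M9 lacking histidine, with 0.1 mM IPTG and 5 mM 3-AT, for 48 hours at 37°C. Illumina sequencing covered plasmids before and after selection; three replicate libraries were pooled and variants with under 10 reads dropped. A fitness score is the log change in variant-to-wild-type read ratio, rescaled to the cognate and non-cognate references.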
For the variant EMAL, the “one-hybrid fitness for binding NBS DNA” value is not above 0.2. PDYF: the “one-hybrid fitness for binding NBS DNA” value was not above 0.2. As for HTSG, the “one-hybrid fitness for binding NBS DNA” value was not above 0.2. As to TCDG, the “one-hybrid fitness for binding NBS DNA” value is not above 0.2.

Take QSWH: the “one-hybrid fitness for binding NBS DNA” value is not above 0.2. For WSQL, the “one-hybrid fitness for binding NBS DNA” value was not above 0.2. For PRVC the value was not above 0.2; for PTNM, not above 0.2.

On to RVGM, for which the “one-hybrid fitness for binding NBS DNA” value was not above 0.2. With PVVR the figure was not above 0.2; with RASW, not above 0.2; with RMNG, not above 0.2. For the variant TSSY, the “one-hybrid fitness for binding NBS DNA” value was not above 0.2.

In the case of KDPR, the “one-hybrid fitness for binding NBS DNA” value is not above 0.2. As to EGPA, the “one-hybrid fitness for binding NBS DNA” value was not above 0.2. For RQPR the value was not above 0.2; for ASSS, not above 0.2; for HDSY, not above 0.2.

Turning to LWAA, the “one-hybrid fitness for binding NBS DNA” value is not above 0.2.

As to DCCR, the “one-hybrid fitness for binding NBS DNA” value was not above 0.2. With NGTR the figure was not above 0.2; with DASN, not above 0.2; with LMLY, not above 0.2. On to LAML, for which the “one-hybrid fitness for binding NBS DNA” value was not above 0.2. Turning to NCTS, the “one-hybrid fitness for binding NBS DNA” value was not above 0.2.

Take DAVY: the “one-hybrid fitness for binding NBS DNA” value is not above 0.2. In the case of SMAC, the “one-hybrid fitness for binding NBS DNA” value was not above 0.2.

With TTDG, the “one-hybrid fitness for binding NBS DNA” value is not above 0.2. In the case of FGIT, the “one-hybrid fitness for binding NBS DNA” value is not above 0.2. For WFPC the value was not above 0.2; for RTRA, 0.446; for PPWS, not above 0.2. In the case of QPNS, the “one-hybrid fitness for binding NBS DNA” value is not above 0.2. On to STQS, for which the “one-hybrid fitness for binding NBS DNA” value is not above 0.2. With RLMQ, the “one-hybrid fitness for binding NBS DNA” value was not above 0.2. With ELQY the figure was not above 0.2; with NTRN, not above 0.2. Take DTMI: the “one-hybrid fitness for binding NBS DNA” value was not above 0.2. For QPKK the value was not above 0.2.

AEAC: the “one-hybrid fitness for binding NBS DNA” value is not above 0.2.

As for PCED, the “one-hybrid fitness for binding NBS DNA” value was not above 0.2. For KDPW the value was not above 0.2. With SGIT the figure was not above 0.2. With SSMF the figure was not above 0.2; with RDDV, not above 0.2.

In the case of RCIT, the “one-hybrid fitness for binding NBS DNA” value is 0.289.

With TDHC, the “one-hybrid fitness for binding NBS DNA” value is not above 0.2. For RPRS, the “one-hybrid fitness for binding NBS DNA” value was not above 0.2. With KWAG the figure was not above 0.2. As for RKAM, the “one-hybrid fitness for binding NBS DNA” value is not above 0.2.

Regarding TSTL, the “one-hybrid fitness for binding NBS DNA” value was not above 0.2. In the case of ALEN, the “one-hybrid fitness for binding NBS DNA” value was not above 0.2. Turning to WYCE, the “one-hybrid fitness for binding NBS DNA” value is not above 0.2. For STLI the value was not above 0.2; for YKRT, not above 0.2. With HHHC the figure was not above 0.2; with LFRM, not above 0.2.

For MADP, the “one-hybrid fitness for binding NBS DNA” value is not above 0.2. For NIWV, the “one-hybrid fitness for binding NBS DNA” value was not above 0.2. As for ILLC, the “one-hybrid fitness for binding NBS DNA” value is not above 0.2. Turning to QKPN, the “one-hybrid fitness for binding NBS DNA” value is not above 0.2. With HRKC the figure was not above 0.2; with CHEL, not above 0.2. With KQVR the figure was not above 0.2; with RIPQ, not above 0.2; with DKVG, not above 0.2. As to YVPC, the “one-hybrid fitness for binding NBS DNA” value was not above 0.2. For VKAG the value was not above 0.2; for SFCD, not above 0.2; for TPPV, not above 0.2. As for IATF, the “one-hybrid fitness for binding NBS DNA” value was not above 0.2. With SYPE the figure was not above 0.2; with NMAS, not above 0.2. As to CGMR, the “one-hybrid fitness for binding NBS DNA” value was not above 0.2. For DLNP the value was not above 0.2. With KMNK the figure was not above 0.2; with PCRV, not above 0.2; with TIPR, not above 0.2. For RYRW the value was not above 0.2; for RRWC, 0.393.

For SEDV, the “one-hybrid fitness for binding NBS DNA” value is not above 0.2. On to PCWS, for which the “one-hybrid fitness for binding NBS DNA” value was not above 0.2.

Turning to FGDS, the “one-hybrid fitness for binding NBS DNA” value is not above 0.2.

Take NYQS: the “one-hybrid fitness for binding NBS DNA” value is not above 0.2. For TYTM, the “one-hybrid fitness for binding NBS DNA” value was not above 0.2. For FRMT the value was not above 0.2; for NHLD, not above 0.2; for QLKH, 0.487.

In the case of AAMW, the “one-hybrid fitness for binding NBS DNA” value was not above 0.2. With QNGG the figure was not above 0.2. With HLIT the figure was not above 0.2; with TQTM, not above 0.2; with QGWV, not above 0.2. For the variant PMVK, the “one-hybrid fitness for binding NBS DNA” value was not above 0.2.

For RSCF, the “one-hybrid fitness for binding NBS DNA” value is not above 0.2. On to ERKG, for which the “one-hybrid fitness for binding NBS DNA” value was not above 0.2. Consider VYHV, for which the “one-hybrid fitness for binding NBS DNA” value is not above 0.2. For the variant VHMM, the “one-hybrid fitness for binding NBS DNA” value is not above 0.2.

As to AGST, the “one-hybrid fitness for binding NBS DNA” value is not above 0.2. Take IADM: the “one-hybrid fitness for binding NBS DNA” value was not above 0.2. With KDSM the figure was not above 0.2; with NSKF, not above 0.2; with QMSK, not above 0.2. For TTNK, the “one-hybrid fitness for binding NBS DNA” value is not above 0.2. For the variant FSGG, the “one-hybrid fitness for binding NBS DNA” value is not above 0.2. For the variant PWMC, the “one-hybrid fitness for binding NBS DNA” value was not above 0.2. For HAHG the value was not above 0.2; for RARS, 0.564. With LNTH, the “one-hybrid fitness for binding NBS DNA” value was not above 0.2.

Consider ALFR, for which the “one-hybrid fitness for binding NBS DNA” value is not above 0.2. Regarding IKRR, the “one-hybrid fitness for binding NBS DNA” value came to 0.207.

Take FCRL: the “one-hybrid fitness for binding NBS DNA” value was not above 0.2. For the variant TCKY, the “one-hybrid fitness for binding NBS DNA” value was not above 0.2. With LGKR the figure was not above 0.2. For TKLC, the “one-hybrid fitness for binding NBS DNA” value was not above 0.2. With KENY the figure was not above 0.2; with FNSR, not above 0.2; with FKKA, not above 0.2. For NMRG the value was not above 0.2. For the variant PMCL, the “one-hybrid fitness for binding NBS DNA” value was not above 0.2. Consider GSSH, for which the “one-hybrid fitness for binding NBS DNA” value was not above 0.2. As for TVTS, the “one-hybrid fitness for binding NBS DNA” value is not above 0.2. For TRGC the value was not above 0.2; for GMCR, not above 0.2; for DRVW, not above 0.2. Consider QIWW, for which the “one-hybrid fitness for binding NBS DNA” value was not above 0.2. Take NHMR: the “one-hybrid fitness for binding NBS DNA” value is not above 0.2. For RLKM the value was not above 0.2; for CVFR, not above 0.2. With SCRY the figure was not above 0.2.

For the variant QFFR, the “one-hybrid fitness for binding NBS DNA” value was found to be 0.439.

With SMQN, the “one-hybrid fitness for binding NBS DNA” value is not above 0.2. In the case of VRHW, the “one-hybrid fitness for binding NBS DNA” value is not above 0.2. Consider WQTP, for which the “one-hybrid fitness for binding NBS DNA” value was not above 0.2. FCMC: the “one-hybrid fitness for binding NBS DNA” value is not above 0.2. In the case of RLQV, the “one-hybrid fitness for binding NBS DNA” value is not above 0.2.

Take GYHF: the “one-hybrid fitness for binding NBS DNA” value is not above 0.2. Regarding WDTS, the “one-hybrid fitness for binding NBS DNA” value was not above 0.2. With SQEY the figure was not above 0.2; with PLQL, not above 0.2; with CVNC, not above 0.2. For SLPD the value was not above 0.2.

In the case of MIWG, the “one-hybrid fitness for binding NBS DNA” value was not above 0.2.

On to GDSP, for which the “one-hybrid fitness for binding NBS DNA” value is not above 0.2.

For the variant YCDY, the “one-hybrid fitness for binding NBS DNA” value is not above 0.2. Regarding TQQI, the “one-hybrid fitness for binding NBS DNA” value is not above 0.2. For IQML the value was not above 0.2; for HCIS, not above 0.2; for QHQC, not above 0.2. For RSRP the value was not above 0.2; for VTCT, not above 0.2. With KSHE the figure was not above 0.2. RSRA: the “one-hybrid fitness for binding NBS DNA” value amounted to 0.317.
